These results are taken from the RNAGym collection of RNA variant scans (doi:10.7554/elife.90254).

Read counts are not given, so values of variants with three or more changes are uncertain.

Sequences and labels used below:
B1: LINE1-mini (parent)
chain: GGCAGAGCUCAACACAGCGUGGCAAAGUGGCUGUGGCUAGACUGCC

This data set covers variants of B1. Kind of data set: self-cleavage, relative activity (ratio to wild type); higher = more cleavage; in vitro, sequencing; the parent is a self-cleaving ribozyme.
Regarding A11G A14U A24G U43G, the self-cleavage worked out at 0. For A12U G27C G30C U34A C42G the value was 0.02. Take G5U A12G C15A C31A: the self-cleavage turned out to be 0.1. Take A6G C10G G17A G40A: the self-cleavage is 0.04. On to G7U C13A G27A C37G G40U C42G C46G, for which the self-cleavage is 0.1.

In the case of C10A A26U U32C C37U G40U, the self-cleavage was 0.02.

On to G2C C10A C13A C15A G29U, for which the self-cleavage came to 0.03. For A16C G17A G27U U32A G33U G36C A39G the value was 0.01. With A12G A16C U28A C46U, the self-cleavage was 0.04. For C10A G30U G36C G44A the value was 0.02; for G1A U9A U28G, 0.48. Turning to A4G G21U G35U U38A G44U, the self-cleavage was 0.01. Take G2C C3U C8A A12G C13U A24G: the self-cleavage came out at 0.08.

In the case of G17C G19C G21A, the self-cleavage stood at 0.23. To A11U A16U G29A belongs 0.05; to U32A C37A A41U, 0.02; to A16G G30A C45A, 0.3. To G7C C10U A26G C42U belongs 0.18; to A6C G7A A16C A25G G33A C45U, 0.01.

For the variant C10A C23A A25U G27C, the self-cleavage is 0. For G5C G7C C15A U20A C23U U28G G29A U34A, the self-cleavage was found to be 0.01. For C10U U32G C46U the value was 0.04; for C3A U9A C31G, 0.07. Take A6C C13A A41U: the self-cleavage is 0.1.

As for A6G G27A G33A, the self-cleavage stood at 0.04.

Regarding A6C A26U U43A, the self-cleavage was 0.06.

On to G1C C8U C13A G19C U28A, for which the self-cleavage was 0.03. To C15A U38C C46U belongs 0.02; to G17C G27C G40C, 0.04. To G17U U20C G30C belongs 0.92; to G7C G19A U38A, 0.03. For C8A A14U A16U G19U G27U the value was 0.08; for G7C A14G C15A C23U G35U A41U, 0; for C8A A14U G27U G44U, 0.05. For G5U A11U A16G, the self-cleavage was found to be 0.03. Take U9C U38G G40C: the self-cleavage was determined as 0.03.

Turning to A14C G33U G36U C37G, the self-cleavage worked out at 0.15. For A11G A16U G27A, the self-cleavage came out at 0.04. For G7U C13G G19U A41G, the self-cleavage amounted to 0.15. On to U20A U28A C37A, for which the self-cleavage amounted to 0.04.

As to C10A A14C U32A, the self-cleavage was 0.03. As to C3U A14G C42U, the self-cleavage stood at 0.04. Take G2A G5U C18U G22A: the self-cleavage turned out to be 0.86. Regarding G2U C10A A12C G44C, the self-cleavage was found to be 0.01. G5A A11G A24U: the self-cleavage is 0.09. For G1U C3A C8A G17U U20G C37U G40C the value was 0.07. With C13G G21C A25U C37U A41G, the self-cleavage is 0.12. In the case of C8U A24C A39C, the self-cleavage came to 0.04. For G33A G35A G36A, the self-cleavage is 0.1. For G2C G5A U9G A11C A39U U43G the value was 0; for A14G G27U G44C, 0.12. Consider G1C C15G G22U U43A, for which the self-cleavage was 0.

On to G2A G19C C31U U32A, for which the self-cleavage worked out at 0.1. Regarding C3U A4G G29U G33U, the self-cleavage stood at 0.21. For the variant G2A G5C A25C G27U, the self-cleavage was 0.04. For G5U C15A G40C the value was 0. As to A6U A16G A39C C46U, the self-cleavage came out at 0.18. For G2C C10U A16G, the self-cleavage was determined as 0.02.

Regarding C3U C42U U43C, the self-cleavage was determined as 0.01.

With G17U U28C C45A, the self-cleavage turned out to be 0.44.

Regarding G19C G21C C23G U28C, the self-cleavage was 0.1. To C18U G21A G33A G40U G44U belongs 0.03. To A12U A16G G22U A41U belongs 0.04.

As for U20G U28C G40C U43G, the self-cleavage was 0.02. As for U9G G19A G35U C45A, the self-cleavage came to 0.09. For the variant G2A G27A G35U C37G U43A, the self-cleavage turned out to be 0.08. To G7C U9C C10G C13G G27A belongs 0.

A4G A14C C18G G22C: the self-cleavage is 0.02.

As to C8U C15A C18A U20A G30U G35U U38A, the self-cleavage was 0.01. For U9G G22C U28G G29U the value was 0.01; for C13A U28G U38G, 0. To U34A G40C U43A belongs 0.01; to G1A G17U U28A G29C, 2.59; to G7U G19U U38G A41G, 0.

On to G7C A12U G17A, for which the self-cleavage is 0.07.

As to A14G C18G A26C G29U U32G, the self-cleavage turned out to be 0. On to G5C U32G U34G G35U, for which the self-cleavage was found to be 0.02. As to U9A G27C C42A, the self-cleavage is 0.02. To C3A G40U C42A belongs 0.27; to C8U C10G C13G A24U C37G A39U, 0.01.

For A11U G17U C18A U38A A39U, the self-cleavage worked out at 0.07. On to A6C C13A A16G A25C, for which the self-cleavage worked out at 0.07. As to A4U A16U G27U, the self-cleavage came to 0.27. To G19U G36A G40A belongs 0.31; to G5A C8U G22U G30A, 1.07; to G2C G17C A24C, 0.12. For C15U C18A A24U G29U the value was 0.07; for A11G A24C C45U, 0.03.

As for G5U G22U A39U, the self-cleavage is 0.05. For G27C G29C G40A the value was 0.03; for C8U C18A U34A C37U, 0.03; for G36A A41G U43C, 0.17. Consider G2U C3G A4G A12C A16G G40A, for which the self-cleavage was 0.01. Turning to G1A A25U A26U C45U, the self-cleavage was 0.69. As for G5C A26C U38A, the self-cleavage came out at 0.07. Consider U20A G35U A39G C42G, for which the self-cleavage is 0.04.

As for A12G A14G U34G, the self-cleavage was found to be 0.08. For G5U U9G U32C the value was 0.08; for G22A G29C U34G C42A C45G, 0.01. To C10U G29U C31G A41G belongs 0.02; to U28A G36C C42A, 0.04; to U9G A26C G30U G36U, 0.12. As for G19A G21C G27A, the self-cleavage was determined as 0.13.

Turning to A11U G33U C46A, the self-cleavage amounted to 0.02. To A4G A14G C15A G19C belongs 0.36; to G2U A12G G17C U20G, 0.01; to C3A C8A C37A, 0.29. To C3A A4U G40A U43A belongs 0.08. To U20C A25G G27A C37A A39U belongs 0.05; to C3U G5U U20C G36U, 0.13. Turning to C10G C13A U38C C42A, the self-cleavage came out at 0.01. C15A C23U C37A: the self-cleavage stood at 0.11. For C3A G7A A14G A26U C45U, the self-cleavage was 0.76. For the variant C3A U9A U28G G29U C42A, the self-cleavage was 0.4.

As for G5U C10A A12C C13U G36A A41G G44U, the self-cleavage amounted to 0.03. With C15A U32C G35U U38G G44U, the self-cleavage worked out at 0.02. In the case of A6U A12G A26U, the self-cleavage amounted to 0.11. G17C G29A C45U: the self-cleavage amounted to 0.19. With A11C U32G A39G, the self-cleavage came to 0. In the case of G21A G30A G33U G36U, the self-cleavage amounted to 0.04. For G1U C15G G33U C37G C45G the value was 0.01. To A12U U34G G35U belongs 0.05; to C3U G5C C18G C23G G29U, 0.01; to A6G A24U C37U G40A, 0.08. For C8U G22U A26G C42U the value was 0.29; for U9A U34A C37U, 0.08; for C3U A26C C37A, 0.11.

On to A24C A26U U38C A39U, for which the self-cleavage is 0.17. For A12G C23U G40U the value was 0.05. To C8U C13A A16U belongs 1.08; to A11C C15G U28G, 0.

As to U20A G22C C23A A26C G33U G44U, the self-cleavage was 0.01. Take C13A U28G A39G: the self-cleavage stood at 0. For C8A G17U G21U G40U the value was 0.04. For A14C A39G G44U, the self-cleavage is 0.07. To A11G G33A U43G belongs 0. Take C10U G22C G40A: the self-cleavage came to 0.07. In the case of A14U C18A U28G, the self-cleavage stood at 0.01. For C23G G30U U34C G40U the value was 0.03; for C3A G7U C8A A11G A12G C31G, 0.03. Take A12G C23G G40U: the self-cleavage was 0.

Consider U9A G21C G27U, for which the self-cleavage worked out at 0.22.

Take C8U C10A G27U A39U: the self-cleavage amounted to 0. To G5U C13U G17C U38A belongs 0.06. C18G U20A A26C U34A A41U C46U: the self-cleavage came to 0.01. To C8G C18U U32G C37U belongs 0.01; to G7U C8U G29U C46U, 0.28. For C18U G19C G30U A39G the value was 0.01. For A11C G19C A26U the value was 0.11. Regarding G17C U20G G30U G40U, the self-cleavage stood at 0.02.

Take G5A C8A C10A C18U: the self-cleavage is 0.03. With G5A C8A A25U G30C C31G U43C, the self-cleavage came out at 0.32.

Consider A12C G29A A39U C42G, for which the self-cleavage came to 0. With G1A C10U C18A G27C C31G, the self-cleavage is 0.07. For G1U A6G G7U C13G G21C G22A C31A, the self-cleavage is 0.03. As to G5A G7A A12G A16U G29C, the self-cleavage turned out to be 0.05. To G5U C13A C15G G27C C37U belongs 0.03; to C10G G22U G29U U32C, 0.01; to G7A G17A C45A, 0.17. With A12C C15G G27U U43A G44A, the self-cleavage amounted to 0.04.

With C8A U9G G21A G29C A41U, the self-cleavage was determined as 0.02. Regarding G21U G35U C46U, the self-cleavage was determined as 0.12. In the case of C3A A14U C23A U34C C45U, the self-cleavage worked out at 0.37. For the variant A6U C10A A25G, the self-cleavage was determined as 0.05.

For C3A A16G G22C A25U, the self-cleavage turned out to be 0.03. For G40U A41G C46U the value was 0.15; for U9G C13U U20G G35A, 0.06.
